Source: article PMC4336329 (PLoS ONE, 2015)
In all, about 310,000 compounds went through this assay and about 2,200 (0.71%) showed an effect of 50% or more. The effect is printed as a negative number. The list shows a part of the results.

molecular target: human ether-à-go-go-related gene (hERG) potassium channel (human, UniProt Q12809); assay: primary screen, population patch clamp on CHO cells stably expressing hERG
Sequence (Q12809 whole entry, looked up): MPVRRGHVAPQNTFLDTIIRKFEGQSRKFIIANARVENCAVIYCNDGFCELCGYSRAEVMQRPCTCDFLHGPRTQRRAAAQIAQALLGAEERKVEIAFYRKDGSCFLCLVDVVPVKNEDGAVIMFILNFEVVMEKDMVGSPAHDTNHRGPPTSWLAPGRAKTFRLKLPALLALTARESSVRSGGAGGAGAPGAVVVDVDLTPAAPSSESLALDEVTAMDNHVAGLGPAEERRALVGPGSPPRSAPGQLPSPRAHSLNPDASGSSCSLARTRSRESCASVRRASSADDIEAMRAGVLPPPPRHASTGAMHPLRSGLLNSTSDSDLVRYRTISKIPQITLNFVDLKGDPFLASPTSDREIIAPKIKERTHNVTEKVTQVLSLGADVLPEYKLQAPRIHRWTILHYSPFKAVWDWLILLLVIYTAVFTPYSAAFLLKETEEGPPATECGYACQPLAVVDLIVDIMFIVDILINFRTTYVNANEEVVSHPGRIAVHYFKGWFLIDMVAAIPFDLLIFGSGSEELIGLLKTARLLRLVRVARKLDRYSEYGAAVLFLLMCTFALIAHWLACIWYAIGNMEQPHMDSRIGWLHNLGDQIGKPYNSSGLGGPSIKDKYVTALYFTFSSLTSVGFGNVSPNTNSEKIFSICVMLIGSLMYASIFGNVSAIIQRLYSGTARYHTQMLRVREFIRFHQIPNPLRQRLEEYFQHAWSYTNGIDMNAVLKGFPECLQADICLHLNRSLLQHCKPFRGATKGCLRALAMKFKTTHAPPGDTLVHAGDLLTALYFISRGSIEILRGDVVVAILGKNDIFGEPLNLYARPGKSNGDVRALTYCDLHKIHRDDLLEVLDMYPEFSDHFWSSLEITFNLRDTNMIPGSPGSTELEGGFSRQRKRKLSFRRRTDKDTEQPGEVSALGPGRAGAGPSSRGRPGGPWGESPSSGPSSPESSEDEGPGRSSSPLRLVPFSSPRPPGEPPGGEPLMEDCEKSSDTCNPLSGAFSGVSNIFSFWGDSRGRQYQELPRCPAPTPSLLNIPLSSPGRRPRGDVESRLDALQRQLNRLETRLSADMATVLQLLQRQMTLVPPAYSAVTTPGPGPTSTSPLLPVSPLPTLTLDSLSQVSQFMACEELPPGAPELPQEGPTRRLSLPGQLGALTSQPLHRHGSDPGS

First: Cn1c(CC(=O)NNC(=O)c2ccc(F)cc2Cl)nc2ccccc21
Second: CCN(CC)S(=O)(=O)c1ccc(/C(O)=C(\C#N)c2nc3ccccc3n2C)cc1
The “hERG current change (%, negative = inhibition) at 1uM” value of the first is higher: 6.46% for the first, -0.574% for the second.

First: CCOC(=O)N1CCN(C(=O)CCS(=O)(=O)c2ccc3c(c2)CCN3C(=O)CC)CC1
Second: CCOC(=O)c1ccc2c(c1)nc(SCC(=O)N1CCCCC1)n2CC
The “hERG current change (%, negative = inhibition) at 1uM” value of the first is higher: 16.7% for the first, -1.04% for the second.

Going from `CCc1nnc(NS(=O)(=O)c2ccc(N/C=C\C(=O)c3cccc4ccccc34)cc2)s1` to `O=S(=O)(Nc1ncccn1)c1ccc(NC(=S)Nc2ccc(Cl)cc2)cc1`, the “hERG current change (%, negative = inhibition) at 1uM” value rises from 9.01% to 9.66%.

Compared with `COc1ccccc1-n1c(O)c(C=NCCN2CCNCC2)c(=O)[nH]c1=O`, `CN1C(=O)/C(=N\OC(=O)c2ccccc2Cl)c2ccccc21` is lower in “hERG current change (%, negative = inhibition) at 1uM” value: 8.95% for the first, 2.24% for the second.

Going from `Cc1ccc(C)c(OCC(O)CN2CCC(CN3C(=O)c4cccc5cccc(c45)C3=O)CC2)c1.Cl` (centres unmarked) to `COc1ccc(C(=O)NC2CCN(CC(=O)NCc3ccccc3F)CC2)cc1`, the “hERG current change (%, negative = inhibition) at 1uM” value falls from 8.5% to 6.33%.

Going from `O=C(COC(=O)Cc1c(Cl)cccc1Cl)Nc1ccccc1-c1ccccc1` to `O=C(Cc1ccccc1F)OCC(=O)N1CCc2ccccc21`, the “hERG current change (%, negative = inhibition) at 1uM” value rises from 0.167% to 5.45%.

First: CCOc1ccc(N(C(C)C(=O)N2CCCCCC2)S(C)(=O)=O)cc1 (centres unmarked)
Second: CC(C)(C)NC(=O)C1CCCN(S(=O)(=O)c2ccc(-n3cnnn3)cc2)C1 (centres unmarked)
The “hERG current change (%, negative = inhibition) at 1uM” value of the first is lower: 0.174% for the first, 11.8% for the second.

First: Cc1cccc(OCCCC(=O)N2CCCc3ccccc32)c1C
Second: O=C(O)c1c2c(nc3ccccc13)/C(=C/c1ccc(O)cc1)CCC2
The “hERG current change (%, negative = inhibition) at 1uM” value of the first is higher: 11.7% for the first, 8.46% for the second.

Going from `COc1ccc(CCNC(=O)CC2Oc3ccc(Cl)cc3NC2=O)cc1OC` (centres unmarked) to `COC(=O)c1cc(OC)c(OC)cc1NC(=O)CN1C(=O)c2ccccc2C1=O`, the “hERG current change (%, negative = inhibition) at 1uM” value rises from -7.02% to -4.66%.

First: Cc1[nH+]csc1CCOC(=O)c1ccc(N2CCOCC2)c([N+](=O)[O-])c1.[Cl-]
Second: COC(=O)c1ccc(SCC(=O)NC2CCCCC2)c([N+](=O)[O-])c1
The “hERG current change (%, negative = inhibition) at 1uM” value of the first is lower: -2.61% for the first, 5.43% for the second.

Going from `C=CCNC(=O)C1CCN(S(C)(=O)=O)CC1` to `CCOCCCNC(=O)C1CCN(S(=O)(=O)N2CC(C)CC(C)C2)CC1` (centres unmarked), the “hERG current change (%, negative = inhibition) at 1uM” value rises from 4.99% to 20.9%.

Compared with `Cc1ccc(OC(=O)CCC(=O)Nc2ccc(C)c(C)c2)cc1`, `COc1ccc(NC(=O)Nc2cc(C)ccc2OC(F)F)c(OC)c1` is lower in “hERG current change (%, negative = inhibition) at 1uM” value: 13.2% for the first, 4.33% for the second.

First: Nc1ncnc(Nc2ccc(S(N)(=O)=O)cc2)n1
Second: Nc1nc(N)nc(-c2ccc(Cl)cc2)n1
The “hERG current change (%, negative = inhibition) at 1uM” value of the first is lower: 3.85% for the first, 5.35% for the second.

Compared with `Clc1ccc(Nc2ccc(-n3ccnc3)nn2)cc1Cl`, `O=[N+]([O-])c1ccc(-c2nnc3cccc(Cl)n23)cc1` is higher in “hERG current change (%, negative = inhibition) at 1uM” value: 2.97% for the first, 4.02% for the second.

First: CCCCC(=O)N/N=C/c1c(O)n(CCCC)c(=S)[nH]c1=O
Second: CCCCCc1ccc(C(=O)CCCC)c(=S)[nH]1
The “hERG current change (%, negative = inhibition) at 1uM” value of the first is lower: 10% for the first, 11.8% for the second.

Going from `COc1cc(C(=O)N/N=C2\CCS(=O)(=O)c3ccc(F)cc32)cc(OC)c1OC` to `Cc1cc(C(=O)N/N=C/c2cn(C)nc2C)c2ccccc2n1`, the “hERG current change (%, negative = inhibition) at 1uM” value falls from 12.8% to 5.11%.

Compared with `O=S(=O)(NCC(c1ccco1)N1CCN(c2ccccc2F)CC1)c1ccccc1` (centres unmarked), `COc1ccc(N(CC(=O)NCc2ccco2)S(=O)(=O)c2ccccc2)cc1` is higher in “hERG current change (%, negative = inhibition) at 1uM” value: 3.95% for the first, 7.59% for the second.

Compared with `CCN(CC)CCN(C(=O)c1ccc(S(=O)(=O)N2CCOCC2)cc1)c1nc2cc3c(cc2s1)OCCO3.Cl`, `CCCNC(=O)c1ccc(CNc2c(N3CCC(C(=O)OCC)CC3)c(=O)c2=O)cc1` is higher in “hERG current change (%, negative = inhibition) at 1uM” value: 7.39% for the first, 10.9% for the second.

First: C=CCN1C(=NC(=O)CCC(=O)O)SC2CS(=O)(=O)CC21 (centres unmarked)
Second: CCOC(=O)c1csc(NC(=O)CCSc2ccccc2)n1
The “hERG current change (%, negative = inhibition) at 1uM” value of the first is lower: 8.11% for the first, 15.6% for the second.

First: O=C1OCc2cc(NC(=O)C34CC5CC(CC(C5)C3)C4)ccc21
Second: Cc1c(Br)c([N+](=O)[O-])nn1C(C)C(=O)Nc1ccc2c(c1)OCO2 (centres unmarked)
The “hERG current change (%, negative = inhibition) at 1uM” value of the first is higher: 19.4% for the first, -0.696% for the second.

First: COc1ccc(-c2cc(C(=O)N3CCCC(C(F)(F)F)C3)c3ccccc3n2)cc1 (centres unmarked)
Second: CC(C)(C)c1ccc(C(=O)Nc2cccc3ncccc23)cc1
The “hERG current change (%, negative = inhibition) at 1uM” value of the first is lower: 7.3% for the first, 11.9% for the second.

Going from `Cc1ccc(OCC(=O)N2CCN(Cc3ccc([N+](=O)[O-])cc3)CC2)cc1.O=C(O)C(=O)O` to `O=C(NC(=S)N1CCN(C/C=C/c2ccccc2)CC1)c1c(F)cccc1F`, the “hERG current change (%, negative = inhibition) at 1uM” value rises from -85% to 2.6%.

Compared with `CCOC(=O)c1cc(NC(=O)N2CCOCC2)c(C)nc1C`, `CCOC(=O)C(=Cc1ccccc1OC)C(=O)OCC` is lower in “hERG current change (%, negative = inhibition) at 1uM” value: 5.75% for the first, -2.59% for the second.

Going from `CCOc1ccc(OCCOCCn2ccnc2)cc1` to `CC(c1ccccc1)n1cnc2ccccc21` (centres unmarked), the “hERG current change (%, negative = inhibition) at 1uM” value rises from 10.6% to 13.5%.

First: CN(C)C(CNC(=O)Cc1cccc(C(F)(F)F)c1)c1ccccc1 (centres unmarked)
Second: CN(C)C(CNC(=O)CSc1nc2ccccc2c(=O)n1Cc1ccco1)c1ccccc1 (centres unmarked)
The “hERG current change (%, negative = inhibition) at 1uM” value of the first is higher: 7.99% for the first, -6.81% for the second.

Compared with `CCOC(=O)CCCc1ccc(/C(C)=N/NC(=S)NC)cc1`, `O=C(CCc1ccc(O)c(O)c1)N/N=C/c1ccc2c(c1)OCO2` is lower in “hERG current change (%, negative = inhibition) at 1uM” value: 12.6% for the first, 4.77% for the second.

Compared with `O=C(CSc1nnc(CNC(=O)c2ccccc2F)o1)c1ccccc1`, `Cc1ccc2[nH]c(=O)c3cc(C(=O)NCC4CCCO4)sc3c2c1` (centres unmarked) is higher in “hERG current change (%, negative = inhibition) at 1uM” value: -4.77% for the first, 5.31% for the second.

First: O=C(c1ccc2c(Cl)c3c(nc2c1)CCCC3)N1CCC(N2CCCCC2)CC1
Second: COC(=O)C1=C(c2ccc(Cl)c(C(F)(F)F)c2)C[C@@H]2CC[C@H]1N2C(=O)N1CCCC1
The “hERG current change (%, negative = inhibition) at 1uM” value of the first is lower: -12.6% for the first, 5.61% for the second.
